The values below come from the supplement of paper PMC8728848.

This is one part of the list.

What all share (assay): glycan array binding signal (z-score within array); higher = stronger binding
Common to all, as to settings: glycan notation: IUPAC condensed, linker removed

The target in one assay is GlcNAc(b1-3)GalNAc. A digest of the protocol: (§1)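 The binding signal is a Z-score computed within each array and averaged over linkers. Arrays of the same protein sequence at different concentrations or buffers were also averaged together. Data originate from 3228 arrays in the Consortium for Functional Glycomics database, kept only where the protein sequence was available.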

For another assay, the target named is GlcNAc(b1-3)Man. A digest of the protocol: as §1
Assay [1] deals with GlcNAc(b1-3)[GlcNAc(b1-4)][GlcNAc(b1-6)]GlcNAc. A digest of the protocol:
as §1

The target of assay [2] is GlcNAc(b1-3)[GlcNAc(b1-6)]Gal(b1-4)GlcNAc. A digest of the protocol:
as §1

For assay [3], the target named is GlcNAc(b1-3)[GlcNAc(b1-6)]GalNAc. A digest of the protocol: as §1
Assay [4] concerns the target GlcNAc(b1-4)Gal(b1-4)GlcNAc. A digest of the protocol:
as §1

The target in the next assay is GlcNAc(b1-4)GlcNAc. A digest of the protocol:
as §1

For assay [5], the target named is GlcNAc(b1-4)GlcNAc(b1-4)GlcNAc. A digest of the protocol:
as §1

Assay [6] addresses GlcNAc(b1-4)GlcNAc(b1-4)GlcNAc(b1-4)GlcNAc(b1-4)GlcNAc. A digest of the protocol:
as §1

The target of assay [7] is GlcNAc(b1-4)GlcNAc(b1-4)GlcNAc(b1-4)GlcNAc(b1-4)GlcNAc(b1-4)GlcNAc. A digest of the protocol: as §1
Assay [8] concerns the target GlcNAc(b1-4)[GlcNAc(b1-6)]GalNAc. A digest of the protocol: as §1
In assay [9] the target is GlcNAc(b1-6)Gal(b1-4)GlcNAc. A digest of the protocol:
as §1

The target of another assay is GlcNAc(b1-6)GalNAc. A digest of the protocol:
as §1

The target of assay [10] is GlcNAc6S(b1-3)Gal(b1-4)GlcNAc. A digest of the protocol: as §1
A further assay has as its target Kdn(a2-3)Gal(b1-3)GalNAc. A digest of the protocol: as §1
The target of the next assay is Kdn(a2-3)Gal(b1-3)GlcNAc. A digest of the protocol:
as §1

A further assay addresses Kdn(a2-3)Gal(b1-4)Glc. A digest of the protocol: as §1
The next assay has as its target Kdn(a2-3)Gal(b1-4)GlcNAc. A digest of the protocol:
as §1

For assay [11], the target named is Kdn(a2-3)Gal(b1-4)[Fuc(a1-3)]GlcNAc. A digest of the protocol:
as §1

A further assay concerns the target Kdn(a2-6)Gal(b1-4)GlcNAc. A digest of the protocol: as §1
Assay [12] addresses Man(a1-2)Man(a1-2)Man(a1-3)Man. A digest of the protocol:
as §1

Assay [13] addresses Man(a1-2)Man(a1-2)Man(a1-6)[Man(a1-3)]Man. A digest of the protocol: as §1
A further assay addresses Man(a1-2)Man(a1-3)Man. A digest of the protocol:
as §1

B1: HBHA-Rv (Mycobacterium tuberculosum), P0A5P6 (protein)
chain: MAENSNIDDIKAPLLAALGAADLALATVNELITNLRERAEETRTDTRSRVEESRARLTKLQEDLPEQLTELREKFTAEELRKAAEGYLEAATSRYNELVERGEAALERLRSQQSFEEVSARAEGYVDQAVELTQEALGTVASQTRAVGERAAKLVGIELPKKAAPAKKAAPAKKAAPAKKAAAKKAPAKKAAAKKVTQK
Regarding B1, the “glycan array binding signal (z-score)” value in the assay with GlcNAc(b1-3)GalNAc is -0.128; with GlcNAc(b1-3)Man, -0.144; in [1], 0.099; in [2] it was -0.201; in assay [3], -0.052; in assay [4], 0.604. Also, the “glycan array binding signal (z-score)” value was -0.292 in the assay with GlcNAc(b1-4)GlcNAc; -0.252 in [5]; 4.22 in assay [6]; 3.44 in assay [7]; 0.481 in [8]; -0.139 in assay [9]. Besides, the “glycan array binding signal (z-score)” value in the assay with GlcNAc(b1-6)GalNAc was 0.067; in assay [10], -0.165; in the assay with Kdn(a2-3)Gal(b1-3)GalNAc it was -0.31; in the assay with Kdn(a2-3)Gal(b1-3)GlcNAc, -0.129; with Kdn(a2-3)Gal(b1-4)Glc it was -0.38; with Kdn(a2-3)Gal(b1-4)GlcNAc, -0.312. Also, the “glycan array binding signal (z-score)” value in assay [11] was -0.371; in the assay with Kdn(a2-6)Gal(b1-4)GlcNAc, -0.255; in [12] it was -0.209; in assay [13], -0.15; with Man(a1-2)Man(a1-3)Man, 0.325.
